In ChEMBL document CHEMBL4888484, “Replenishing the malaria drug discovery pipeline: Screening and hit evaluation of the MMV Hit Generation Library 1 (HGL1) against asexual blood stage Plasmodium falciparum ,using a nano luciferase reporter read-out” (2022):
In all, about 150,000 compounds went through this assay and about 540 (0.36%) showed an effect of 50% or more. Some of the results follow.

system: Plasmodium falciparum; test: Primary screen in NF54 nanoGlo assay, in single point, at 2uM, 72h; a lower Z score goes with more inhibition; format: functional, Erythrocyte; conditions: timepoint 72 hour

| Structure (SMILES) | % Inhibition | Z score |
| --- | --- | --- |
| c1ccc2c(-c3nc4c(c(NCCN5CCCC5)n3)CNC4)c[nH]c2c1 | 7% | -1.47 |
| O=C(N[C@H]1CCC[C@H]1CO)c1cc(F)cc2ccoc12 | -3% | 0.45 |
| c1cc(Cc2noc(C3CC34CCOC4)n2)no1 (stereo not drawn) | 0% | 0.04 |
| Cn1cc([C@H](C(=O)Nc2ccc3oc(C4CC4)nc3c2)N2CCOCC2)cn1 | -8% | 1.24 |
| O=C(NCC1CS(=O)(=O)c2ccccc21)NC1C2Cc3cc(F)ccc3C21 (stereo not drawn) | -2% | 0.24 |
| O=C(O)C(CNC(=O)C1CC=CCC1)CC1CC1 (stereo not drawn) | 13% | -1.56 |
| Cc1nc2n(n1)CC(NC(c1ccccc1)c1ccc(F)cn1)CC2 (stereo not drawn) | -4% | 0.53 |
| Cn1nc(-c2cccnc2)c2c1NC(=O)C[C@@H]2Cc1ccccc1 | -6% | 1.23 |
| O=C(Cn1cnc2c(c1=O)CCC2)Nc1cccc(Cl)c1Cl | -4% | 0.62 |
| O=c1c2ccncc2ncn1[C@@H]1COC2(CCCCC2)C1 | -3% | 0.61 |
| CC(C)Cc1cc(C(=O)N2CCS(=O)(=O)CC2)on1 | -16% | 1.49 |
| Cc1occc1-c1nnc(NCc2cccc3c2OCO3)o1 | -9% | 1.19 |
| CS(=O)(=O)N(CCN1CCOCC1)[C@H]1CCCN(C(=O)c2cccc3[nH]ccc23)C1 | -4% | 0.81 |
| Cn1cc(C2(c3cn(C)c4ccccc34)CCN(C(=O)[C@H]3CC(=O)N(c4ccccc4)C3)CC2)c2ccccc21 | -1% | 0.16 |
| CN1C[C@@H](C(=O)Nc2scnc2-c2ccccc2)Cc2ccccc21 | 6% | -1.04 |
| CCCCC(=O)N[C@@H](C)c1nnc(C)s1 | -4% | 0.37 |
| Cc1ccnc(-n2nccc2NC(=O)NC[C@H]2CCC(C)(C)O2)c1 | -16% | 2.18 |
| Cc1cc([C@H]2c3nc[nH]c3CCN2CCOCc2ccccc2)on1 | -7% | 0.83 |
| O=C(NCc1ccc(-c2ccoc2)cc1)C1CCOCC1 | -6% | 0.67 |
| CC(C)C[C@]1(CO)CCCN1C(=O)NCCc1cccnc1 | -18% | 2.48 |
| CN1CCc2ccc(S(=O)(=O)NCc3nnc(C4CC4)o3)cc21 | -10% | 1.52 |

| Structure (SMILES) | % Inhibition | Z score |
| --- | --- | --- |
| CCC1CCN(C(=O)c2ccn3nccc3n2)CC1 | 21% | -2.48 |
| Cc1c(C(=O)O)nn(-c2ccc(F)cc2)c1Oc1ccc(NC(=O)CC(C)C)cc1S(=O)(=O)NC(C)C | -5% | 0.48 |
| CCCN(Cc1cn2c(C)cc(C)nc2n1)CC(F)(F)F | -5% | 0.65 |
| COC1(CC(=O)Nc2ccncc2C#N)CCC1 | 6% | -0.71 |
| COc1cc(CN2CCC[C@H](NC(=O)OC(C)(C)C)C2)sn1 | -3% | 0.4 |
| CCn1nccc1C(=O)Nc1ccccc1Oc1ccccc1 | -16% | 2.77 |
| O=C(NCc1cccs1)N1CC[C@H](Oc2cnsn2)C1 | -8% | 1.55 |
| COCCn1nnnc1[C@]1(N2CCOCC2)CCCN(C(=O)c2ccc3[nH]ccc3c2)C1 | -4% | 0.63 |
| COc1nc2c(c(C)nn2-c2ccc(C)cc2)c(C)c1CCC(=O)NCc1ccc(F)cc1 | -8% | 1.23 |
| CN(C)C1=NC2(CCN(Cc3ccc([C@@H]4CCCO4)s3)CC2)C(=O)N1 | -10% | 1.25 |
| Cc1ccc(Br)c(CNC(=O)NCc2cn(C)cn2)c1 | -14% | 2.68 |
| O=c1c2c(nc(NCCO)n1C1CCCCC1)-c1ccccc1CC21CCCCC1 | -20% | 2.55 |
| CC(=O)c1ccc(S(=O)(=O)N2CCOc3ccc(COCc4ccc(F)cc4)cc3C2)cc1 | 4% | -0.6 |
| Cn1nccc1-c1cn(CC(=O)Nc2ccc3c(c2)CCC3)nn1 | 0% | -0.04 |
| Cc1cc(C(=O)Nc2nnc(-c3csc(C)n3)o2)no1 | -16% | 2.4 |
| CC(=O)c1cc(CN2CCC3(CC2)CN(CCC(C)C)C(=O)O3)n(C)c1 | 4% | -0.38 |
| C=CCN(c1ccccc1)S(=O)(=O)C[C@H](C)OC | -9% | 1.73 |
| CC(=O)c1sc(-c2ccoc2)nc1C | -9% | 1.78 |
| c1ccc(NC(Nc2nnn[nH]2)=C(c2ccccc2)c2ccccc2)cc1 | 38% | -4.88 |
| CC(C(=O)NC[C@H]1CCc2ccccc2O1)n1ccnc1 (stereo partly drawn) | -5% | 0.72 |
| O=C1Nc2ccccc2Oc2ccc(NS(=O)(=O)c3ccc(F)c(Cl)c3)cc21 | -13% | 1.44 |

| Structure (SMILES) | % Inhibition | Z score |
| --- | --- | --- |
| O=C(N[C@H]1CC(=O)N(c2c(F)cccc2F)C1)c1cc[nH]c(=O)c1 | 3% | -0.55 |
| CC[C@@H]1C[C@H]1NC(=O)NCc1cc(Cl)cc(S(=O)(=O)CC)c1 | -6% | 0.8 |
| Cc1occc1C(=O)NCc1cccnc1Oc1ccc(F)c(F)c1 | -3% | 0.58 |
| O=C1CC[C@H](CC(=O)N2CCCn3c(cc4ccccc43)C2)CN1 | -8% | 0.83 |
| CCc1nnc(NC(=O)c2sc(N(C)C)nc2C)s1 | -13% | 1.3 |
| O=S(=O)(Cc1ccccc1)NC[C@H]1CCCO1 | -8% | 1.11 |
| O=C(c1ccc(C(F)(F)F)cc1)N1C[C@H](COc2ccncc2)C2(CCOCC2)C1 | 10% | -1.35 |
| O=C(NCC1CS(=O)(=O)CCO1)C(c1ccccc1)C1CC1 (stereo not drawn) | -3% | 0.23 |
| C[C@H]1C(=O)Nc2c(Cl)cc(Cl)cc2C(=O)N1C | 7% | -0.91 |
| CC(C)c1cc(C(=O)N[C@@H](C)c2nc3c(s2)CCCC3)on1 | -8% | 1.37 |
| CC(C)c1nc(NC(=O)COc2cccc3c2ccn3C(C)C)n[nH]1 | -1% | 0.08 |
| O=C1NCCCc2[nH]c(-c3cc(-c4ccccn4)no3)nc21 | -10% | 1.91 |
| COc1ccc(-c2nc3c([nH]2)CCN(c2ccc(C)nn2)C3)cn1 | 0% | -0.05 |
| COc1ccc(CNC(=O)c2cc3c(n2C)CCN(Cc2ccc(F)cc2)C3)cc1 | 6% | -0.68 |
| Cn1ccc(NC(=O)C(=O)N2CC[C@H](N3CCCCC3)C2)n1 | -10% | 0.93 |
| Cc1ccc(CN2CC(O)C(O)C2)c(Br)c1 (stereo not drawn) | 4% | -0.67 |
| O=C1N[C@@H]2CCN(C(=O)c3cccs3)[C@@H]2C(=O)N1c1ccc(Oc2ccccc2)cc1 | 1% | -0.24 |
| CCc1ccc2nc(C)cc(C(=O)N3CCC(Nc4ncccn4)CC3)c2c1 | -8% | 1.37 |
| OC1CCN(c2nncc3ccccc23)CC1 | 7% | -0.98 |
| C=CCN(CC(=O)N1CCCN(c2ccc(-c3ccccc3)nn2)CC1)C(=O)c1ccc(Cl)cc1 | -8% | 1.23 |
| Cc1cc(CCC(=O)N2CC(n3nccn3)C2)ccc1F | 2% | -0.27 |

| Structure (SMILES) | % Inhibition | Z score |
| --- | --- | --- |
| CCOc1cccc(-c2noc(Cn3ccn4nc(-c5ccc(F)cc5)c(CO)c4c3=O)n2)c1 | -14% | 1.61 |
| Cc1cc(C(=O)N2C[C@@H]3c4ccccc4OC[C@]3(CO)C2)nc2[nH][nH]c(=O)c12 | 0% | -0.03 |
| OCc1cccc(N(Cc2ccon2)C2Cc3ccccc3C2)c1 | -13% | 2.1 |
| O=C(CCc1cccnc1)N1CCN(S(=O)(=O)c2ccc3c(c2)CCCC3)CC1 | -3% | 0.32 |
| COCCCn1c(NS(=O)(=O)c2ccccc2)c(S(=O)(=O)c2ccc(C)cc2)c2nc3ccccc3nc21 | 43% | -9.12 |
| CC1CCN(CCCC(=O)c2ccc(F)cc2)CC1 [MELPERONE] | -6% | 0.66 |
| CC(C)Cc1nc(N2CCCN(C(=O)C3CCCC3)CC2)c2c(-c3cccc(Oc4ccccc4)c3)noc2n1 | -7% | 1.3 |
| COc1ccc(CCC(C)NC2CCCc3ccccc32)cc1 (stereo not drawn) | -4% | 0.77 |
| CCN(CC)CC1(NC(=O)c2ccc(Cl)cn2)CC1 | -8% | 1.08 |
| Cc1cc(C)n(-c2oc(-c3cccnc3)nc2C#N)n1 | 3% | -0.43 |
| COCCN(CCOc1ccccc1F)C(=O)[C@@H]1CCCCN1C | -11% | 2.01 |
| O=C(C1CCN(Cc2nnc(-c3ccco3)o2)CC1)N1CCCC1 | -14% | 2.64 |
| COCCN(CC(C)C)c1cnccn1 | -1% | 0.1 |
| c1cc2nnnn2nc1N1CCC2(CC1)OCCO2 | 1% | -0.15 |
| COc1cc(NC(=O)c2ccco2)c2cccnc2c1 | 1% | -0.11 |
| COc1ccc(Oc2cnn(-c3ccc(F)cc3)c(=O)c2Nc2ccc(C(=O)NCc3ccco3)cc2)cc1 | -1% | 0.13 |
| CCn1c(C)nnc1CNC1CCCC1Cc1ccccc1 (stereo not drawn) | -10% | 1.03 |
| O=C(c1ccn2c(-c3ccc(F)cc3)nnc2c1)N1CCN(c2ccccc2F)CC1 | -2% | 0.34 |
| Cc1noc([C@H]2OCC[C@H]2Nc2ncnc3ccc(C(C)C)cc23)n1 | -10% | 1.9 |
| Cc1cc(NC(=O)Nc2cc(-c3cccnc3)n[nH]2)nn1C(C)C | 33% | -3.39 |
| Cc1ccc(-n2nc3c(=O)n([C@@H](C)C(=O)NCc4ccccc4C)nc(C)c3c2C)cc1 | 0% | -0.03 |
